Out of some 310,000 compounds screened, about 2,200 (0.71%) showed an effect of 50% or more. Effects have a minus sign here. This is one part of the list.
Each molecule was assayed against human ether-à-go-go-related gene (hERG) potassium channel (human, UniProt Q12809) (assay: primary screen, population patch clamp on CHO cells stably expressing hERG).
Chain of human ether-à-go-go-related gene (hERG) potassium channel (Q12809 whole entry, looked up): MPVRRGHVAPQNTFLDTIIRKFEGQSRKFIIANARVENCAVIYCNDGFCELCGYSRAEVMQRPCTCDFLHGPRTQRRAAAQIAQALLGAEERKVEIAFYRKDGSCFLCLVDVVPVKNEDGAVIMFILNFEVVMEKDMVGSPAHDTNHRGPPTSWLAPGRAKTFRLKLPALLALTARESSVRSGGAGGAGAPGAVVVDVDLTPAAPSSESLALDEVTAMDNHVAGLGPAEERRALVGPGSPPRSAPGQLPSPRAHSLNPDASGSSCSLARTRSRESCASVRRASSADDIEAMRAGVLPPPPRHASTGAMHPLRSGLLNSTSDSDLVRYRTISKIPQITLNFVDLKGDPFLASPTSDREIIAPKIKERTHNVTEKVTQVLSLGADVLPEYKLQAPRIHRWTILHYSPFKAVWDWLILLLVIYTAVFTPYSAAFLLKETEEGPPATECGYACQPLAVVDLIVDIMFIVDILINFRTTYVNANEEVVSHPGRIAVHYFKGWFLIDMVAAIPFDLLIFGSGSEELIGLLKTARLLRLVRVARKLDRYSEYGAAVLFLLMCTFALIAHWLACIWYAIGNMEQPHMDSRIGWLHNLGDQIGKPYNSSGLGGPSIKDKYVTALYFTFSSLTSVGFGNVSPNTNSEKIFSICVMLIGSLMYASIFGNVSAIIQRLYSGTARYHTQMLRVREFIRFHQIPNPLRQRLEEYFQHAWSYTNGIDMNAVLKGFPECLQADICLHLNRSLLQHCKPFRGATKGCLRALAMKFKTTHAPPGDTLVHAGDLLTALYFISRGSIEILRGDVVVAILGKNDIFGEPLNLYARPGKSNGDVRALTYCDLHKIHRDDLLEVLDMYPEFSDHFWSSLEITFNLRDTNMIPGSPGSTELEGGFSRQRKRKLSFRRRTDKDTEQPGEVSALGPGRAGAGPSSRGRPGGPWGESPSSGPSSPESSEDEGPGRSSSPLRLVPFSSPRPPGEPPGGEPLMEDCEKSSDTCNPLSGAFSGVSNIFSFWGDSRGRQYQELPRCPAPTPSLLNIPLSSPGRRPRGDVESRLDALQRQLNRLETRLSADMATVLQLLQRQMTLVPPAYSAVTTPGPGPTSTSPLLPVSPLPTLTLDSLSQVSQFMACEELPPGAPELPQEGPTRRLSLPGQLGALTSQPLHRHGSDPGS

Structure (SMILES)	hERG current change (%, negative = inhibition) at 1uM
O=C(Nc1nc(-c2ccc(F)cc2)cs1)c1cccc(N2C(=O)CCC2=O)c1	6.1%
COC(=O)c1ccccc1NC(=O)Nc1cc(C(C)(C)C)on1	15.4%
CCCCOc1ccc(Cc2c(O)nc(SC)[nH]c2=O)cc1	16.4%
Cc1ccc(-c2csc(NC(=O)c3ccc([N+](=O)[O-])o3)n2)cc1	10.4%
CC1CCCN(c2ccc(C(=O)N3CCC4(CC3)OCCO4)cc2[N+](=O)[O-])C1 (stereo not drawn)	-7.08%
Cc1c(C(=O)NC2CCS(=O)(=O)C2)oc2ccccc12 (stereo not drawn)	13.2%
CCOc1ccc(CN(C)C(=O)c2ccc(S(=O)(=O)N(C)c3ccccc3OC)cc2)cc1	4.09%
Cc1cc(C)n(-c2ccc(Cl)c(C(=O)O)c2)n1	9.5%
COc1ccc(/C=C/C(=O)NC(=S)NNC(=O)c2cccs2)cc1	16.6%
O=C(CNC(=O)C1CCCCC1)Nc1ccc(Cl)cc1	11.2%
O=[N+]([O-])c1ccc(-c2cnc(SC(c3ccccc3)c3ccccc3)[nH]2)cc1	8.26%
CC(C)(CN1CCN(c2ccccc2)CC1)NS(=O)(=O)c1ccccc1	3.9%
CC(C)CC(NC(=O)C1CCC(C)CC1)C(=O)N1CCN(c2ccccn2)CC1 (stereo not drawn)	-17.4%
CCCNS(=O)(=O)c1ccc(OCC(=O)N2CCN(Cc3ccc4c(c3)OCO4)CC2)c(C)c1	-18.6%
COc1ccc(C(=O)Nc2ccnn2C2CCN(C(C)CSC)CC2)cc1 (stereo not drawn)	10.2%
CC1(C)CNC(=O)c2sc(N3CCOCC3)nc2C1	11.8%
O=C(Nc1cccc(O)c1)C(=O)Nc1ccccn1	10.1%
CC(=O)c1c(C)[nH]c(C(=O)OC2CCCCC2=O)c1C (stereo not drawn)	12%
COC(=O)C1=C(c2ccc(C(C)=O)cc2)C[C@@H]2CC[C@H]1N2C(=O)NCCCOC(C)C	4.47%
CC(C)C(=O)NCCc1nc2ccccc2n1CCOc1ccccc1	14%
COc1ccc(CCn2c(=N)c(C(=O)NC3CCCC3)cc3c(=O)n4cccc(C)c4nc32)cc1	-79.9%
N#Cc1ccc(-c2ccco2)nc1SCC(=O)c1ccc(Cl)cc1	16.4%
COc1ccc(-c2c(=O)n(OC)c3ccccc3[n+]2[O-])cc1OC	18.1%
Cc1ccc(C(=O)C(C)OC(=O)C2=COCCO2)cc1C (stereo not drawn)	5.88%
